# Experimental data published in PubChem BioAssay AID720708 (National Center for Advancing Translational Sciences (NCATS), 2013).
# Hit rate of the full screen: of about 360,000 compounds, about 660 (0.18%) were called active. Calls follow the shape of the dose curve; as a rule, active = well fitted inhibition curve with a large enough effect; inconclusive = small, poorly fitted or top-dose-only effect; inactive = no such curve, though single readings can be large or run the other way. Inconclusive results, whose numbers are uncertain, are shown. No potency is given beside an inconclusive call; the fits are too rough.
# Target: Rap guanine nucleotide exchange factor 4 (Homo sapiens) (UniProt Q8WZA2)
# Chain of UniProt Q8WZA2 (Q8WZA2 whole entry, looked up): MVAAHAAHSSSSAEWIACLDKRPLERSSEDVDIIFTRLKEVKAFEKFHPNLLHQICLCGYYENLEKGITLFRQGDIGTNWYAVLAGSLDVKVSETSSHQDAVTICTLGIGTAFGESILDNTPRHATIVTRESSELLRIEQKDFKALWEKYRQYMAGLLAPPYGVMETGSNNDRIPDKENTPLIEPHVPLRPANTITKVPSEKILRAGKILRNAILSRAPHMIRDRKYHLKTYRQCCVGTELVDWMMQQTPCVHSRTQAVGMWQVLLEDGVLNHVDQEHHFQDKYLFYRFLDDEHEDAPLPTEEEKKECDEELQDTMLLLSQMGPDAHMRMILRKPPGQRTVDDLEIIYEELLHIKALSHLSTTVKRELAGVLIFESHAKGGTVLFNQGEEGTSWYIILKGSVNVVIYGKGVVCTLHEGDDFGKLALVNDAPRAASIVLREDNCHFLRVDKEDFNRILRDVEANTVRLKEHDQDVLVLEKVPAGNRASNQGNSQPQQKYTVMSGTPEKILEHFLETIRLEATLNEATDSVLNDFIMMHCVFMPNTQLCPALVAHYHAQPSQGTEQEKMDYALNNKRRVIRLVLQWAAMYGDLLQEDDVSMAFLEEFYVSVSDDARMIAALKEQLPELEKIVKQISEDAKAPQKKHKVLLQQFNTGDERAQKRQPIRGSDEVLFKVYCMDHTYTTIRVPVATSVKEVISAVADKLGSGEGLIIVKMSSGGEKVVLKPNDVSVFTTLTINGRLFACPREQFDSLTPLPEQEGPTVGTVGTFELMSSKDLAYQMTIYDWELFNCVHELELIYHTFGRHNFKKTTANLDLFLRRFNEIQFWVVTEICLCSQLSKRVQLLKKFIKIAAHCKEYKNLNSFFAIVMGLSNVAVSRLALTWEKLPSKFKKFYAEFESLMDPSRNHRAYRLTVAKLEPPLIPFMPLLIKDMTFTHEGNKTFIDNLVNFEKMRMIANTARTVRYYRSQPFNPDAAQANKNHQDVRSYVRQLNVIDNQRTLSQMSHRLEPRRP
# Experiment: qHTS for Antagonist of cAMP-regulated guanine nucleotide exchange factor 2 (EPAC2): primary screen; also: nearly all actives have a fitted effect of over 45% in size
# Settings: EPAC2 GEF exchange of Rap1B-BODIPY-GDP, fluorescence; series mostly up to 114 µM
# From the text: In multi-cellular eukaryotic organisms, the effects of cAMP are transduced by two ubiquitously-expressed intracellular cAMP receptors, the classic protein kinase A/cAMP-dependent protein kinase (PKA/cAPK) and the more recently discovered exchange protein directly activated by cAMP/cAMP-regulated guanine nucleotide exchange factor (EPAC/cAMP-GEF). Both PKA and EPAC are ubiquitously expressed in all tissues, and an increase in intracellular cAMP levels will lead to the activation of both PKA and EPAC. Therefore, careful dissections of the individual role and relative contribution of EPAC and PKA within the overall cAMP signaling in various model systems are critical for further elucidating the mechanism of cAMP signaling. To date no EPAC-specific antagonists and agonist, as well as isoform-specific agonists have been reported, and developing EPAC-specific pharmacological probes to determine the physiological functions that EPAC play in the overall cAMP-mediated signaling remains a major challenge within the research field. Furthermore, identified regulators of EPAC may lead to new mechanism-based therapeutic strategies specifically targeting the EPAC / cAMP-signaling components as EPAC has been implicated to play important roles in major human pathological conditions such as diabetes, heart disease, and cancer.
# This qHTS will be used to screen the Molecular Libraries Small Molecule Repository (MLSMR) as a concentration-titration series using the NCGC unique quantitative screening (qHTS) platform to find inhibitors for EPAC2. In addition, this assay will also be used as a counterscreen for the EPAC1 qHTS. This fluorescent based assay is developed and validated for EPAC2 that measures exchange using EPAC effector Rap1 complex with BODIPY-GDP, a GDP analog with a tethered fluorophores. Inhibitors are identified by monitoring the change in fluorescence signal as the exchanged free BODIPY-GDP has a reduced fluorescence compared to Rap1-bound BODIPY-GDP. Decrease in signal (inhibition) is the desired outcome for the EPAC2 antagonist while no activity in this assay is desired for the EPAC1 antagonist counterscreen.
# NIH Chemical Genomics Center [NCGC]
# NIH Molecular Libraries Probe Centers Network [MLPCN]
# Assay Submitter (PI): Xiaodong Cheng, The University of Texas, Medical Branch
# Briefly, three uL of reagents (100 nM EPAC2, 250 nM RAP1B-BODIPY-GDP, 50 uM GDP) were dispensed into a 1536-well Greiner black solid-bottom medium binding assay plate. Controls and test compounds (23 nL) were transferred to the plate via a Kalypsys pin tool equipped with a 1536-pin array. The plates were centrifuged at 1,000 rpm for 15 seconds followed by 5 minute incubation at room temperature. The assay plates were read at 5 minute intervals for 30 minutes in the ViewLux plate reader using 480nm excitation and 540nm emission filters. The results were normalized to the agonist positive control ATA and DMSO.
# Potency is read from the fitted curve at half-maximal effect; tags tell the direction and shape of the fitted curve.
row,SMILES,Potency
1,CC(c1ccccc1)N1C(=O)c2ccc(C(=O)Nc3ccccc3C(=O)O)cc2C1=O (stereo unspecified),"inconclusive [inhibitor, partial curve]"
2,CCCCCCc1c(C)c2ccc(OCC(=O)N[C@@H](Cc3ccccc3)C(=O)O)cc2oc1=O,"inconclusive [inhibitor, single point]"
3,O=C(Nc1ccc(C(=O)O)cc1)/C(=C\C=C\c1ccccc1)NC(=O)c1cccc(Br)c1,"inconclusive [inhibitor, partial curve]"
4,CC(c1ccccc1)N1C(=O)c2ccc(C(=O)Nc3ccc(Br)cc3C(=O)O)cc2C1=O (stereo unspecified),"inconclusive [inhibitor, full curve, poor fit]"
5,Cc1ccc(S(=O)(=O)Oc2ccc(/C=C3/C(=N)N4C(=NC3=O)SN=C4S(C)(=O)=O)cc2)cc1,"inconclusive [inhibitor, partial curve]"
6,Cc1ccc(S(=O)(=O)Oc2ccc(/C=C3\C(=N)N4N=C(S(C)(=O)=O)SC4=NC3=O)cc2)cc1,"inconclusive [inhibitor, partial curve]"
7,COc1cc(/C=C2\C(=N)N3N=C(S(C)(=O)=O)SC3=NC2=O)ccc1OC(=O)c1cccs1,"inconclusive [inhibitor, partial curve]"
8,COc1cc(/C=C2\C(=N)N3N=C(S(C)(=O)=O)SC3=NC2=O)cc(OC)c1OCCOc1cccc(C)c1,"inconclusive [inhibitor, partial curve]"
9,CCOC(=O)C1=C(C)N=c2s/c(=C\c3ccc(OCC(=O)O)c(OC)c3)c(=O)n2C1c1ccc(OC)cc1 (stereo unspecified),"inconclusive [inhibitor, full curve]"
10,Cc1cc(C)cc(-n2cccc2/C=C2/C(=N)N3C(=NC2=O)SN=C3S(C)(=O)=O)c1,"inconclusive [inhibitor, partial curve]"
11,CCOc1cc(/C=C2/C(=N)N3C(=NC2=O)SN=C3S(C)(=O)=O)ccc1OS(=O)(=O)c1ccccc1,"inconclusive [inhibitor, partial curve]"
